The values below come from paper PMC4336329 (PLoS ONE, 2015).

SMILES strings stand for the structures. The whole screen tested about 310,000 compounds, of which about 2,200 (0.71%) showed an effect of 50% or more. The effect is printed as a negative number. The list shows a part of the results.

human ether-à-go-go-related gene (hERG) potassium channel, sequence (Q12809 whole entry, looked up): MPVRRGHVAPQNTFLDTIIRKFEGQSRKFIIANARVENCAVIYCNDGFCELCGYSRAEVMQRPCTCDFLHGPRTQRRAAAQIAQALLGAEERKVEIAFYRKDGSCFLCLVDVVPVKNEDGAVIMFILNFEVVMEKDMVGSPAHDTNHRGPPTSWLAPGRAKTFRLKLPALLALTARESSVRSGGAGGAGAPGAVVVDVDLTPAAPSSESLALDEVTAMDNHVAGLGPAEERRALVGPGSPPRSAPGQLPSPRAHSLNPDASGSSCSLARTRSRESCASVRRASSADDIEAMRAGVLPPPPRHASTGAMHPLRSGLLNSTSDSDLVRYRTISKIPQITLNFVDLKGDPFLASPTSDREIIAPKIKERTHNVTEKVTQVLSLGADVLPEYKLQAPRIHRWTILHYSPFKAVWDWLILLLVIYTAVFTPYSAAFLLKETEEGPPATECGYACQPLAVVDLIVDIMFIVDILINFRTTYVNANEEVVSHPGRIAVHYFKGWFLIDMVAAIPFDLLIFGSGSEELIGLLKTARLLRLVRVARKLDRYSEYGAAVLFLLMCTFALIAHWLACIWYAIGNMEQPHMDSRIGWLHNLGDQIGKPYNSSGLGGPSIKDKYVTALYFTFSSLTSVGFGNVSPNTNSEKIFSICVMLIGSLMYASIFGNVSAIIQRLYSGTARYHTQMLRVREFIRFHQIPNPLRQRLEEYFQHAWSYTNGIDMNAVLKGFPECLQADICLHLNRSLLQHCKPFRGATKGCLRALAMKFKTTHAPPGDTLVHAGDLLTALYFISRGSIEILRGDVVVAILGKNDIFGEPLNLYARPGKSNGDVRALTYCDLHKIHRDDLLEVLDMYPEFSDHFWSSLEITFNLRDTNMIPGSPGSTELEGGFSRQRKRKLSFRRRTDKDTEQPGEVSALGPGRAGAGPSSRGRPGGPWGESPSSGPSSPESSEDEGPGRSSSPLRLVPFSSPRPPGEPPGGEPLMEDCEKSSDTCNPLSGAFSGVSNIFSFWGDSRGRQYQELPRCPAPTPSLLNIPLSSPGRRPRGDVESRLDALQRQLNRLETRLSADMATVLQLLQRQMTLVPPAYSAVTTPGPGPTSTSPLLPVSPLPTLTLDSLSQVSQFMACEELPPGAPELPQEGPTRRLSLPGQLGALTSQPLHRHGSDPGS

This test addresses human ether-à-go-go-related gene (hERG) potassium channel (human, UniProt Q12809). The test can be described thus: primary screen, population patch clamp on CHO cells stably expressing hERG.
Consider `COc1ccc(Nc2cc(NCCCO)c([N+](=O)[O-])c3nonc23)cc1`, for which the “hERG current change (%, negative = inhibition) at 1uM” value was 20.4%.

For `CCn1c(=O)c2cc(C(=O)Nc3cc(C)on3)sc2c2ccccc21`, the “hERG current change (%, negative = inhibition) at 1uM” value is reported as -1.81%.

Take `CC1CN(c2cc3nccnc3cc2F)CC(C)O1` (stereo not drawn): the “hERG current change (%, negative = inhibition) at 1uM” value was -0.277%.

For `Cc1c(CN(C)C)c2c(n1Cc1ccccc1)C(=O)c1ccc(Br)cc1-2.Cl`, the “hERG current change (%, negative = inhibition) at 1uM” value was -16.4%.

In the case of `COc1ccc(Br)cc1/C=N/NC(=O)CNC(=O)C1COc2ccccc2O1` (stereo not drawn), the “hERG current change (%, negative = inhibition) at 1uM” value was 0.265%.

As for `NS(=O)(=O)c1ccc(NC(=O)/C=C/c2cn(-c3ccccc3)nc2-c2cccc(Cl)c2)cc1`, the “hERG current change (%, negative = inhibition) at 1uM” value is given as 35.3%.

Regarding `CCN(CC)S(=O)(=O)c1ccc(O)c(C(=O)OCC(=O)N(C)Cc2ccccc2)c1`, the “hERG current change (%, negative = inhibition) at 1uM” value is reported as -13.7%.

Turning to `CCN1C(=O)/C(=C/C=C2/Sc3ccc4ccccc4c3N2CCO)SC1=S`, the “hERG current change (%, negative = inhibition) at 1uM” value came out at 10.3%.

With `Cc1cc2cc(CN(CCN3CCOCC3)C(=O)Nc3ccccc3F)c(=O)[nH]c2cc1C`, the “hERG current change (%, negative = inhibition) at 1uM” value was determined as 6.58%.

On to `O=C(Nc1ccc(OCC(F)(F)C(F)F)c(C(F)(F)F)c1)c1ccccc1O`, for which the “hERG current change (%, negative = inhibition) at 1uM” value was found to be 6.76%.

Regarding `CC1CC(C)(C)CC(=O)C1C(=O)c1ccccc1` (stereo not drawn), the “hERG current change (%, negative = inhibition) at 1uM” value is 14.8%.

Regarding `O=S(=O)(NCc1ccccc1)c1ccc(F)cc1Br`, the “hERG current change (%, negative = inhibition) at 1uM” value is on record as 0.966%.

In the case of `O=C(NCc1ccccc1)c1ccc(Cl)c(NC2=NC3CS(=O)(=O)CC3S2)c1` (stereo not drawn), the “hERG current change (%, negative = inhibition) at 1uM” value was 7.98%.

As for `Cc1cc(C)c2c(C)nn(C3CCCCC3)c2n1`, the “hERG current change (%, negative = inhibition) at 1uM” value is recorded as 11.1%.

Consider `COc1cc(CN2CC(=O)N(c3ccccc3Cl)C2=S)cc(OC)c1OC`, for which the “hERG current change (%, negative = inhibition) at 1uM” value amounted to 17.3%.

`COc1ccccc1COCC(O)CNCC1(N2CCCCC2)CCCCC1.O=C(O)C(=O)O` (stereo not drawn): the “hERG current change (%, negative = inhibition) at 1uM” value is reported as 0.206%.

`O=C(CCNC(=O)N1CCn2c1nc1ccccc12)NCc1ccc(Cl)cc1`: the “hERG current change (%, negative = inhibition) at 1uM” value was found to be 5.76%.

With `Cc1nonc1CC(=O)N1CCc2c([nH]c3ccccc23)C1c1ccccc1F` (stereo not drawn), the “hERG current change (%, negative = inhibition) at 1uM” value came out at 16.6%.

As to `Cc1cccc(NC(=O)NC2CCCCCCC2)c1`, the “hERG current change (%, negative = inhibition) at 1uM” value is given as 16.6%.

As for `COCCCNC(=O)c1ccccc1C(F)(F)F`, the “hERG current change (%, negative = inhibition) at 1uM” value stood at 3.53%.

Take `Cc1nn(-c2ccccc2)c(N2CCCC2)c1/C=N/O`: the “hERG current change (%, negative = inhibition) at 1uM” value is -14.1%.

On to `Cc1cccc(C)c1NC(=O)COC(=O)CCc1ccc(S(=O)(=O)N2CCCCC2)cc1`, for which the “hERG current change (%, negative = inhibition) at 1uM” value was 9.46%.

Regarding `CS/C(=N\S(=O)(=O)c1cccs1)Nc1ccc(Cl)cc1`, the “hERG current change (%, negative = inhibition) at 1uM” value amounted to 5.7%.

With `O=C(Nc1ccc(F)cc1)Nc1ccc(S(=O)(=O)N2CCCC2)cc1`, the “hERG current change (%, negative = inhibition) at 1uM” value is 11.9%.

For the compound `CCOC(=O)CSc1nc2sc(C)c(C)c2c(=O)n1N`, the “hERG current change (%, negative = inhibition) at 1uM” value is 13.7%.

As to `CCOC(=O)c1cc2n(n1)C(C(F)(F)F)CC(C)N2` (stereo not drawn), the “hERG current change (%, negative = inhibition) at 1uM” value came to 13.3%.

As for `O=C(NC1CC1)C1CCN(Cc2cnn(-c3ccccc3)c2-n2cccc2)CC1`, the “hERG current change (%, negative = inhibition) at 1uM” value was 12.4%.

With `COc1cccc(C(=O)Nc2cccc3c2ccc2cccn23)c1`, the “hERG current change (%, negative = inhibition) at 1uM” value stood at 4.47%.

Consider `Cc1nnc(Nc2ccccn2)c2ccccc12`, for which the “hERG current change (%, negative = inhibition) at 1uM” value is on record as -16.2%.

Consider `O=C(NCc1ccc(Cl)cc1)c1noc2c1CCCCC2`, for which the “hERG current change (%, negative = inhibition) at 1uM” value is reported as -6.49%.

Consider `OC(C#CCN1CCCC1)(c1ccccc1)c1cccnc1` (stereo not drawn), for which the “hERG current change (%, negative = inhibition) at 1uM” value amounted to 8.13%.

Turning to `COC(=O)C1=C(C(=O)OC)[C@@H]2N(Cc3ccccc3)c3ccccc3[C@@]23C[C@@H](C(=O)OC)N(C(C)=O)C3=N1`, the “hERG current change (%, negative = inhibition) at 1uM” value is reported as 14.4%.

As to `Cc1cc(C)c2nc(-c3ccccn3)cc(C(=O)NCc3ccco3)c2c1`, the “hERG current change (%, negative = inhibition) at 1uM” value came out at 10.6%.

Take `Cc1nc2ccc(C(=O)Nc3ccc(N(C)C)cc3)cc2s1`: the “hERG current change (%, negative = inhibition) at 1uM” value is on record as 15.3%.

For the compound `Cc1cc([N+](=O)[O-])nn1CC(=O)N(C)Cc1ccccc1`, the “hERG current change (%, negative = inhibition) at 1uM” value was 12.5%.

`O=C(CSc1nnc(SCc2ccc(Cl)cc2)s1)N/N=C/c1ccccc1C(=O)O`: the “hERG current change (%, negative = inhibition) at 1uM” value is 7.06%.

Turning to `O=C(c1cc(F)c(F)cc1Cl)N1CCN(CCc2ccccc2)CC1`, the “hERG current change (%, negative = inhibition) at 1uM” value was -34.7%.

Turning to `Cc1ccc(-n2c(C)cc(C(=O)COc3cccnc3[N+](=O)[O-])c2C)cc1`, the “hERG current change (%, negative = inhibition) at 1uM” value came to 13%.

Regarding `Oc1ccc2nnc3c(Br)cnn3c2c1`, the “hERG current change (%, negative = inhibition) at 1uM” value is 15.4%.

For `Cc1cc(C)cc(NS(=O)(=O)c2cc3[nH]c(=O)c(=O)[nH]c3cc2C)c1`, the “hERG current change (%, negative = inhibition) at 1uM” value turned out to be 9.98%.

Regarding `COc1ccccc1N1CCc2c(C)nc3c(OC)cccc3c21`, the “hERG current change (%, negative = inhibition) at 1uM” value is recorded as -23.1%.

Regarding `O=C(NC(=O)c1ccccc1)Nc1ccccc1O`, the “hERG current change (%, negative = inhibition) at 1uM” value is given as 10.5%.

In the case of `C[C@]12C(=O)N(c3ccc(Br)cc3)C(=O)N1[C@@H]1c3ccccc3OC[C@@H]1[C@H]2c1ccccc1`, the “hERG current change (%, negative = inhibition) at 1uM” value was 16.9%.

Consider `COCCn1c(SCC(=O)c2c[nH]c3ccccc23)nnc1-c1ccncc1`, for which the “hERG current change (%, negative = inhibition) at 1uM” value is recorded as 7.84%.

Consider `COc1ccc(C(=O)NCC(=O)OC2CCCCC2=O)cc1` (stereo not drawn), for which the “hERG current change (%, negative = inhibition) at 1uM” value is given as -0.0213%.

Consider `COc1ccc([N+](=O)[O-])cc1N(CC(=O)Nc1ccccc1C(=O)NC(C)C)S(C)(=O)=O`, for which the “hERG current change (%, negative = inhibition) at 1uM” value is on record as 12.9%.

In the case of `COCCNC(=O)Cn1cnc2sc(C)c(S(=O)(=O)N3CCC(C)CC3)c2c1=O`, the “hERG current change (%, negative = inhibition) at 1uM” value is recorded as 10.8%.

For the compound `COc1ccc(NC(=O)N2CCCCCC2)cc1OC`, the “hERG current change (%, negative = inhibition) at 1uM” value is given as 12.5%.

On to `CO/N=C(/CS(=O)c1ccc(Br)cc1)c1ccc(OC)cc1` (stereo not drawn), for which the “hERG current change (%, negative = inhibition) at 1uM” value worked out at 7.07%.

On to `CN1CCN(C2=NC3(CCCC3)C(C#N)C(=O)N2)CC1` (stereo not drawn), for which the “hERG current change (%, negative = inhibition) at 1uM” value was 12.3%.

`Cc1nnc(SCC(=O)NC2CCCCC2)n(N)c1=O`: the “hERG current change (%, negative = inhibition) at 1uM” value is recorded as -5.16%.

For the compound `Cc1ccc(/C(N)=N/OC(=O)c2ccc3c(c2)OCO3)cc1`, the “hERG current change (%, negative = inhibition) at 1uM” value is reported as 4.94%.

Take `Clc1ccc(-c2nnc(N3CCCC3)nn2)cc1`: the “hERG current change (%, negative = inhibition) at 1uM” value is on record as 6.43%.

Regarding `COC(=O)CC1COc2ccccc2N1C(=O)c1ccc(Cl)cc1` (stereo not drawn), the “hERG current change (%, negative = inhibition) at 1uM” value is -6.42%.

Turning to `O=C(CSc1nc2sc3c(c2c(=O)[nH]1)CCC3)NCCO`, the “hERG current change (%, negative = inhibition) at 1uM” value turned out to be 2.83%.

On to `COc1ccc2c(c1)c(-c1csc(N)n1)c(C)n2C`, for which the “hERG current change (%, negative = inhibition) at 1uM” value amounted to 8.78%.

Take `O=C(Nn1c(=O)[nH]c2ccccc2c1=O)c1ccco1`: the “hERG current change (%, negative = inhibition) at 1uM” value was determined as 0.905%.
